Assay results: patent publication US20210002376A1 (UNIVERSIT T STUTTGART, published 2021)

Target: T1, HER3-Fc fusion protein
T1 construct: range […]; Coated antigen in ELISA; not shown: Fc part of the fusion, not described
Experiment: ELISA, coated HER3-Fc, anti-human Fab-HRP

EC50: 1.1 nM
B1: Db3-43x4D5-Fab-Fckih (bispecific antibody)
heavy 1: [about 120 residues not written out]GGGGSQAGLTQPPAVSVAPGQTASITCGRDNIGSRSVHWYQQKPGQAPVLVVYDDSDRPAGIPERFSGSNYENTATLTISRVEAGDEADYYCQVWGITSDHVVFGGGTKLTVLASTKGPSVFPLAPSSKSTSGGTAALGCLVKDYFPEPVTVSWNSGALTSGVHTFPAVLQSSGLYSLSSVVTVPSSSLGTQTYICNVNHKPSNTKVDKKVEPKSCGTDKTHTCPPCPAPPVAGPSVFLFPPKPKDTLMISRTPEVTCVVVDVSHEDPEVKFNWYVDGVEVHNAKTKPREEQYNSTYRVVSVLTVLHQDWLNGKEYKCKVSNKGLPSSIEKTISKAKGQPREPQVCTLPPSRDELTKNQVSLSCAVKGFYPSDIAVEWESNGQPENNYKTTPPVLDSDGSFFLVSKLTVDKSRWQQGNVFSCSVMHEALHNHYTQKSLSLSPGK
heavy 2: QVQLQQSGPGLVKPSQTLSLTCAISGDSVSSNRAAWNWIRQSPSRGLEWLGRTYYRSKWYNDYAQSLKSRITINPDTPKNQFSLQLNSVTPEDTAVYYCARDGQLGLDALDIWGQGTMVTVSSGGGG[about 200 residues not written out][about 250 residues not written out]
notes: Two different polypeptides; also called bispecific, bivalent diabody fusion protein targeting HER2 (4D5) and HER3 (3-43)
